This is one part of the list.

54 sequences from paper PMC7819943, “Rice protein-binding microarrays: a tool to detect cis-acting elements near promoter regions in rice” can be followed below.

In the experiment the target is T1, OsWOX13 (Oryza sativa, UniProt Q5QMM3 1-267).
T1 sequence: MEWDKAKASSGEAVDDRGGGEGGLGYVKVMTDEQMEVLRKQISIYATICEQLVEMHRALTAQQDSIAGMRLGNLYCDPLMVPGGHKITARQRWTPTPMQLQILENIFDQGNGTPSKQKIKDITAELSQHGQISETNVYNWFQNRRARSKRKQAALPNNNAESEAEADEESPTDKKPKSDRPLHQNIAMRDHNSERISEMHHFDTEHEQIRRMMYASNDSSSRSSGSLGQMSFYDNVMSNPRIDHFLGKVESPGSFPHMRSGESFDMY
Nature of the experiment: protein-binding microarray (RPBM); PBS, 2% BSA, 51.3 ng/ul salmon testes DNA, 50 uM zinc acetate, 200 nM TF, 25 C, 1 h; high values mean tight binding. The following applies: protein: recombinant; tags: N-terminal polyhistidine and DsRed monomer fusion (pET32a); label: CyDye5-dUTP incorporated in the synthesized complementary strand; 3' TTTTT single-stranded linker to array surface; dsDNA, one strand shown. An outline of the steps: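 Transcription factors were made in E. coli BL21-CodonPlus as N-terminal fusions to a polyhistidine tag and DsRed, then purified on Ni–NTA. After primer extension with Cy5-dUTP and blocking with 2% BSA, a custom Agilent array was exposed for 1 h at 25 °C to 200 nM protein in PBS, 2% BSA, salmon testes DNA and 50 µM zinc acetate. Washed arrays were scanned on an Axon 4000B, and the binding signal is per-feature fluorescence intensity in arbitrary units.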
For “CCACTTAGATTAACATTGCTAGAAGCCGAGAACTCTGAAGCGGAGTCACCTAGTGCAG”, the binding signal is 4410 fluorescence intensity (a.u.).

On to “AGTAAATGGAAATTTTAATCTGCTACTCCCTTGCTTACTTCGGAGTCACCTAGTGCAG”, for which the binding signal is 20000 fluorescence intensity (a.u.).

As to “AACCTTGATGAGCATTTCTTAGAAAACATTTTCAATCGACCGGAGTCACCTAGTGCAG”, the binding signal was 17100 fluorescence intensity (a.u.).

Turning to “TTCAAATCTATAATTTCATGTTTGCTGTAAATGAGTACTACGGAGTCACCTAGTGCAG”, the binding signal was 5180 fluorescence intensity (a.u.).

“GGGAGAATTAATGGTTAGGATTTAAAGATGGGTGGGAAATCGGAGTCACCTAGTGCAG”: the binding signal is 3670 ± 105 fluorescence intensity (a.u.).

As to “TCTATTGGGGCGGGGTGTGGTAAGGAAATTACAGTTTGCACGGAGTCACCTAGTGCAG”, the binding signal is 4930 fluorescence intensity (a.u.).

For “AAACAAATTAAAGCCCCACCACCACCACGCCACGCGACGCCGGAGTCACCTAGTGCAG”, the binding signal was 3360 fluorescence intensity (a.u.).

Regarding “GCGCCATGATTTGATAATGTGGTACTATAATAACATTTGCCGGAGTCACCTAGTGCAG”, the binding signal is 21200 fluorescence intensity (a.u.).

With “ATAAAATCTAGAGATTCTAATTATATCGAAACATATTGGTCGGAGTCACCTAGTGCAG”, the binding signal was 4430 fluorescence intensity (a.u.).

Regarding “ATTTGATTAAAATACTTCCTATGCATTCATAATGCTCTGACGGAGTCACCTAGTGCAG”, the binding signal is 12400 fluorescence intensity (a.u.).

“ATTCAATTAATTAGGTGTACTCTTCAACATGCAAAATATGCGGAGTCACCTAGTGCAG”: the binding signal was 38500 fluorescence intensity (a.u.).

Take “ATTCAACATGATTATTATATGGTCATTCTTGAACTGCAAGCGGAGTCACCTAGTGCAG”: the binding signal is 11100 fluorescence intensity (a.u.).

Take “TACCAATCAGGCTTCAAGTTGATGCCATATCAAGATTGTCCGGAGTCACCTAGTGCAG”: the binding signal is 12500 fluorescence intensity (a.u.).

On to “AATTAATTAGCTAGGTTACTTATGGTGCAACATGTCTGACCGGAGTCACCTAGTGCAG”, for which the binding signal is 29400 fluorescence intensity (a.u.).

As for “AGAAAATCATTAGATCATAATCAATTAAGTTTTAATTATTCGGAGTCACCTAGTGCAG”, the binding signal was 7530 fluorescence intensity (a.u.).

Turning to “ATATTTTGATTGAATATGACGTATCCTAGTAATTTGGACCCGGAGTCACCTAGTGCAG”, the binding signal is 59700 fluorescence intensity (a.u.).

For “AGTGGTTGATTTCATCAGTGGGAAATGCATATCGGATCTTCGGAGTCACCTAGTGCAG”, the binding signal is 3260 fluorescence intensity (a.u.).

Consider “CCCTATAATTTACCATAATTTATTCAAACAGCTGGTACCTCGGAGTCACCTAGTGCAG”, for which the binding signal was 25800 fluorescence intensity (a.u.).

With “GGTGAATGGAACAATCAACACAACAGTGAACTGTGGAGTCCGGAGTCACCTAGTGCAG”, the binding signal was 24200 fluorescence intensity (a.u.).

On to “ATGACTGATTTATGACAGCCGTGCATGTGTATTTGTGTACCGGAGTCACCTAGTGCAG”, for which the binding signal is 55500 fluorescence intensity (a.u.).

With “ATTATTCCCAATCAAATTAACACATAACGCACAGACTCAGCGGAGTCACCTAGTGCAG”, the binding signal is 25900 fluorescence intensity (a.u.).

With “TTGATTGATGGGTAGTAAGGAAACCTTTTGAATGAGTGGTCGGAGTCACCTAGTGCAG”, the binding signal is 64700 fluorescence intensity (a.u.).

On to “CCAAAATTTTACACTCTGTCACATCGAATGTTTGGACACACGGAGTCACCTAGTGCAG”, for which the binding signal is 4950 fluorescence intensity (a.u.).

On to “CCTATAATAAATTATAGGTGCCGGTTTATGTAAAATACCGCGGAGTCACCTAGTGCAG”, for which the binding signal was 4200 fluorescence intensity (a.u.).

In the case of “TTCAATCACCGTTCACATAATTCATTTTGCAGATCCCCATCGGAGTCACCTAGTGCAG”, the binding signal was 19000 fluorescence intensity (a.u.).

In the case of “ATTCAATGTGATTAAATACTTTGGTTGCTGTCAAAAGTGACGGAGTCACCTAGTGCAG”, the binding signal is 3150 fluorescence intensity (a.u.).

Turning to “CACGGCATGATTGGGACGTGGGCCCCACCTGCAGCGACTGCGGAGTCACCTAGTGCAG”, the binding signal was 8990 fluorescence intensity (a.u.).

Consider “AGTAAATAATTTCAAATGAAACAATTATTAATAACAAAGTCGGAGTCACCTAGTGCAG”, for which the binding signal is 4940 fluorescence intensity (a.u.).

Consider “AAATAATTAGCACAACAGACACGGATTGCTGAGGTTTGATCGGAGTCACCTAGTGCAG”, for which the binding signal was 34600 fluorescence intensity (a.u.).

On to “TGGGTAATCACAGGTGTGAATTTGCCGGGAAGGTTGAAAGCGGAGTCACCTAGTGCAG”, for which the binding signal is 4830 fluorescence intensity (a.u.).

For “ATTAATATGGATTGGAGGGATCGGAGGGAGTAGGTGCATGCGGAGTCACCTAGTGCAG”, the binding signal is 3540 fluorescence intensity (a.u.).

As for “TTTAATGAAATTAATTTGATATTTTAAATGTTACTAAAACCGGAGTCACCTAGTGCAG”, the binding signal was 19900 fluorescence intensity (a.u.).

As to “ACAAAATTGAACACAAGTCGTTATGCCTTACTGCTATAAACGGAGTCACCTAGTGCAG”, the binding signal was 9320 fluorescence intensity (a.u.).

With “TTAAAATAGTTAATACTCAATTAATCATGCGCTAATGGTACGGAGTCACCTAGTGCAG”, the binding signal is 11000 fluorescence intensity (a.u.).

For the sequence “TTGATTTCTTTACTCCTTGATTTAGTTGCTTGTCTTCTACCGGAGTCACCTAGTGCAG”, the binding signal was 6150 fluorescence intensity (a.u.).

Turning to “AATCAATTATCCCAAATCGTATTTCATCGATGCAGATTAACGGAGTCACCTAGTGCAG”, the binding signal was 16500 fluorescence intensity (a.u.).

As for “GCACTAATAGAATTATGGTTTTACATGTCCAACCTTAATACGGAGTCACCTAGTGCAG”, the binding signal is 13800 fluorescence intensity (a.u.).

On to “GCCTTAACTTTGTGATCATATCTTCATCTTCATTAGGCCTCGGAGTCACCTAGTGCAG”, for which the binding signal is 4300 fluorescence intensity (a.u.).

Turning to “GTGATTGGTTGGGAGGAGAATGTTGGTAGAGAAGTTGTTACGGAGTCACCTAGTGCAG”, the binding signal was 15900 fluorescence intensity (a.u.).

With “TGAACTGAGGGTAATTTGGTCAAATTTATGGTTGTAACGGCGGAGTCACCTAGTGCAG”, the binding signal is 4280 fluorescence intensity (a.u.).

Regarding “TTTAATTAAACATCACCTGTCGATCATTCTCCGATCATACCGGAGTCACCTAGTGCAG”, the binding signal was 17500 fluorescence intensity (a.u.).

Regarding “TCATCAGTTAATTAATACATGCATATTATATTATATAGGGCGGAGTCACCTAGTGCAG”, the binding signal was 20200 fluorescence intensity (a.u.).

Regarding “TCACATGCATAATTTAGCTAAGATTGAATAATCTAATCAGCGGAGTCACCTAGTGCAG”, the binding signal was 17500 fluorescence intensity (a.u.).

Consider “AAGTTGATTTTAGGCATGAAAAGTTGTGAAGTGGTATGCGCGGAGTCACCTAGTGCAG”, for which the binding signal was 3380 fluorescence intensity (a.u.).

With “GGTGATTATACAGGCTCAAGCAGCTAGGAAGCATAACACCCGGAGTCACCTAGTGCAG”, the binding signal was 13100 fluorescence intensity (a.u.).

Take “ACAATCATCAACTCTAGATGACATGGACATATGTTACCACCGGAGTCACCTAGTGCAG”: the binding signal was 6650 fluorescence intensity (a.u.).

As to “AATTAATGACATTATCATTTTACATGCCATCTCCATCAGACGGAGTCACCTAGTGCAG”, the binding signal is 17100 fluorescence intensity (a.u.).

Turning to “GAAAATTTAAAATTATGTCTATTAAAATTTTAGGAAATTTCGGAGTCACCTAGTGCAG”, the binding signal is 16900 fluorescence intensity (a.u.).

Regarding “CCCTTTATTTGCTTATGATTTGTATTAGTTTGGTCAATATCGGAGTCACCTAGTGCAG”, the binding signal is 10800 fluorescence intensity (a.u.).

“ATTCAGATATCTCAATCATCATAAAATCGTGGTCATCTCCCGGAGTCACCTAGTGCAG”: the binding signal was 9050 fluorescence intensity (a.u.).

For the sequence “TAAAATTTTAAAACTTAATTTTAAAGTCTACCTTTAGGCTCGGAGTCACCTAGTGCAG”, the binding signal was 17000 fluorescence intensity (a.u.).

As for “GTGACAGACAAGACGAAGAAATGTCATGGCTGGAGGCGGTCGGAGTCACCTAGTGCAG”, the binding signal was 3960 fluorescence intensity (a.u.).

With “GCATGGATCCAATTAACTCTTTCTATTTTGTGTCTAGGTTCGGAGTCACCTAGTGCAG”, the binding signal is 3200 fluorescence intensity (a.u.).

As to “GACCTTATTTGCATTGATTGACCTTATTTGCATTGATTTTCGGAGTCACCTAGTGCAG”, the binding signal was 19600 fluorescence intensity (a.u.).
